Measurements: PubChem BioAssay AID485367 (National Center for Advancing Translational Sciences (NCATS), 2010)
In all, about 330,000 compounds went through this assay and about 560 (0.17%) were called active. This list was built around the results that the source calls inconclusive (neither active nor inactive); the mix of calls is not that of the screen. Calls follow the shape of the dose curve; as a rule, active = well fitted inhibition curve with a large enough effect; inconclusive = small, poorly fitted or top-dose-only effect, or effect the other way; inactive = flat fitted curve, though single readings scatter. Potencies of inconclusive entries are left out as doubtful fits.

target: ATP-dependent 6-phosphofructokinase (Trypanosoma brucei brucei) (UniProt O15648); assay: qHTS Assay to Find Inhibitors of T. brucei phosphofructokinase; also: nearly all actives have a fitted effect of over 60% in size;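 as to activity, negative = inhibition: 0% = uninhibited 1x PFK enzyme wells and -100% = no-enzyme wells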; settings: T. brucei PFK, ADP-Glo luminescence; activity, negative = inhibition: at 57.5 µM (top of the series)
Chain of UniProt O15648 (O15648 whole entry, looked up): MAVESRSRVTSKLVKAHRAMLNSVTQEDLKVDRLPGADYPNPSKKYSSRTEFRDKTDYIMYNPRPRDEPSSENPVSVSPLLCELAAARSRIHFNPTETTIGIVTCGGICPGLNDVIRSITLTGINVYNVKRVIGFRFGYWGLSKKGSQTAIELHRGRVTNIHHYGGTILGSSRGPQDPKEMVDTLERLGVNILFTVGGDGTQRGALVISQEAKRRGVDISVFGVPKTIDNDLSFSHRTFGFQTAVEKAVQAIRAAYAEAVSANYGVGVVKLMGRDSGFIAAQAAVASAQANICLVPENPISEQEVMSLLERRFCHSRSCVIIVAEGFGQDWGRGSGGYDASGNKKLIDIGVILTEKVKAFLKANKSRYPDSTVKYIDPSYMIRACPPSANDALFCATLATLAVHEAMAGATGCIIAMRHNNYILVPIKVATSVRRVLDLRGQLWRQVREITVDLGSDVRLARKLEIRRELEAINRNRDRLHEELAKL
Summary of the method: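 1.25 nM PFK with 0.5 mM F6P and 0.1 mM ATP in 0.1 M TEA pH 8.0, 5 mM MgCl2, incubated 45 min at room temperature; ADP measured by ADP-Glo luminescence; compounds titrated up to 57 uM.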
Potency is read from the fitted curve at half-maximal effect; tags tell the direction and shape of the fitted curve.

Row | Structure (SMILES) | activity, negative = inhibition | Potency
1 | COc1ccccc1NC(=O)Nc1ccnn1C1CCCCC1 | inactive: 0.184% | –
2 | COc1ccc(CCNC(=S)NC(=O)c2ccccc2)cc1C | inactive: 0.873% | –
3 | Cc1cccc(C)c1NC(=O)CSc1nnc(-c2ccco2)c(-c2ccco2)n1 | – | inconclusive [falling, single point]
4 | COc1ccc(OC)c(NC2c3ncccc3C(=O)N2Cc2ccco2)c1 (centres undefined) | inactive: -3.43% | –
5 | O=C1OC(Nc2ccc(F)c([N+](=O)[O-])c2)c2ccccc21 (centres undefined) | – | active: 15.1 µM
6 | N#Cc1ccc(OCC(=O)Nc2cccc(S(=O)(=O)NC3=NCCCCC3)c2)cc1 | – | active: 6.01 µM
7 | Cc1ccc(N2C(=O)C3C4C=CC(CC4)C3C2=O)cc1[N+](=O)[O-] (centres undefined) | – | inconclusive [falling, single point]
8 | COc1ccccc1NS(=O)(=O)c1cccc(C(=O)NCC(c2ccco2)N2CCCCC2)c1 (centres undefined) | – | inconclusive [activator, full curve, poor fit]
9 | CSCCC(NC(=O)c1ccccc1Br)C(=O)N1CCN(C(C)=O)CC1 (centres undefined) | inactive: 0% | –
10 | COC(=O)c1ccccc1S(=O)(=O)N(Cc1ccco1)Cc1cc2cc(OC)ccc2[nH]c1=O | – | inconclusive [activator, partial curve]
11 | COc1ccc(CCN2C(=O)C(O)=C(C(C)=O)C2c2ccccc2OC)cc1OC (centres undefined) | – | inconclusive [falling, single point]
12 | CC(=O)Nc1nc(C)nc(-c2ccccc2)c1C(C)=O | – | inconclusive [falling, single point]
13 | CC(NC(=O)Cc1ccc(S(=O)(=O)N2CCOCC2)s1)c1ccc(Cl)c(Cl)c1 (centres undefined) | – | inconclusive [falling, single point]
14 | Cc1nc(C)c(-c2ccc(SCC(=O)Nc3cccc(Cl)c3C)nn2)s1 | – | inconclusive [falling, single point]
15 | O=C(Nc1ccc(C(=O)O)cc1)/C(=C\c1cccc([N+](=O)[O-])c1)NC(=O)c1ccc(Br)o1 | – | inconclusive [activator, single point]
16 | COc1ccc(O)c(C(=O)C2c3ccccc3C(=O)N2c2ccc(C)cc2)c1 (centres undefined) | – | inconclusive [falling, partial curve]
17 | CCOc1cc(/C=C/c2ccc3cccc([N+](=O)[O-])c3n2)ccc1OCC(=O)N(C)C | inactive: 24.7% | –
18 | C=CCNC(=O)N1CCc2[nH]c3ccc(F)cc3c2C1 | – | inconclusive [falling, partial curve]
19 | COc1ccc([C@@H]2CC=C(C(=O)O)[C@H](c3ccc(Br)cc3)N2S(=O)(=O)c2ccc(C)cc2)cc1OC | inactive: 2.57% | –
